PubChem BioAssay AID624171 (National Center for Advancing Translational Sciences (NCATS), 2012)
In all, about 410,000 compounds went through this assay and about 1,200 (0.29%) were called active. Another 2% or so got no clear call; they are omitted. Calls come from the whole dose curve; as a rule, active = well fitted activation curve with a large enough effect; inconclusive = small, poorly fitted or top-dose-only effect; inactive = flat fitted curve, though single readings scatter. Only a part is listed here, and it is no random draw.

Assay: qHTS of Nrf2 Activators; note: nearly all actives have a fitted effect of over 65% in size; for activation: % of control where 0% means no effect
Conditions: AREc32 ARE-luciferase reporter (MCF7-derived line), luminescence, 24 h; series mostly up to 46.1 µM; activation: at the top concentration
Description: Many diseases have some form of oxidative stress injury and ties to inflammation, causing a host of problems for the patient. The antioxidant response element (ARE) plays an important role in alleviating the harmful effects of oxidative stress. The antioxidant response element (ARE) is a transcriptional regulatory element involved in the activation of genes coding for a number of antioxidant proteins and detoxifying enzymes. These enzymes work in concert to protect tissues from oxidative insults and chemical toxicities in human hepatocytes and immune cells. The protective effects of ARE activation are primarily triggered through Nrf2 (NF-E2-related factor) binding to and activating AREs. It is known that Nrf2 controls the production of over 250 antioxidant and detoxification proteins (Hu et al., 2006), thereby protecting tissues by increasing cellular antioxidant content and suppressing inflammatory signaling pathways. The transcription factor Nrf2 is a central link between oxidative chemicals, such as phenolic antioxidants and electrophilic compounds, and the activation of ARE. Nrf2 levels are constitutively low as a consequence of its interaction with Keap1, which targets its degradation (Zipper and Mulcahy, 2002). Electrophiles react with key cysteine residues in Keap1, releasing Nrf2 and allowing its translocation to the nucleus. Once within the nucleus, Nrf2 complexes with coactivators such as p300, and binds to the AREs to induce gene transcription of cytoprotective enzymes, resulting in the prevention of toxicity. Activation of Nrf2 protects tissues by increasing cellular antioxidant content and suppressing inflammatory signaling pathways. Identifying novel and potent Nrf2 activators by using the AREc32 cell line to detect ARE activation by small molecules will lead to the identification and development of probes to study protective pathways in multiple tissues. These specific probes are essential to study the ARE pathway, and eventually to determine whether this pathway does activate genes that could protect against a host of diseases, including cardiovascular diseases, obesity, diabetes, Alzheimer's, and Parkinson's disease.
This project's aim is to identify novel and potent Nrf2 activators by using the AREc32 cell line to detect ARE activation by small molecules, which will lead to the identification and development of probes to study the ARE pathway.
NIH Chemical Genomics Center [NCGC]
NIH Molecular Libraries Probe Centers Network [MLPCN]
Assay Submitter (PI): Curtis Klaassen, University of Kansas Medical Center
5 uL of 1000 cells/well of AREc32_Fluc cells are seeded into 1536-well plate in OPTI-MEM medium with 5% FBS. […] After the addition of 2.5 uL of Steady-Glo. the plates are kept at RT for 30 min, before they are read on the ViewLux.
Potency is the fitted concentration of half-maximal effect.

Compound | Potency | activation
COc1cc([N+](=O)[O-])c2nc(C)ccc2c1[N+](=O)[O-] | active: 17.8 µM | 
O=C1C=C2C=C[C@H]3C[C@]2(O1)[C@@H]1CCCCN13 |  | inactive: 7.75%
COc1cccc(N2C(=O)NC(=O)/C(=C\c3ccc([N+](=O)[O-])s3)C2=O)c1 |  | inactive: 8.68%
NC(N)=Nc1ccc2[nH]c3c(c2c1)C[C@@]1(O)[C@H]2Cc4ccc(O)c5c4[C@@]1(CCN2CC1CC1)C3O5 (some centres undefined) |  | inactive: -0.016%
